# Data published in PubChem BioAssay AID2100 (National Center for Advancing Translational Sciences (NCATS), 2009).
# Hit rate of the full screen: of about 300,000 compounds, about 1,200 (0.4%) were called active. The inconclusive results got no clear call from the source; some entries with a clear call stand among them for comparison. Calls follow the shape of the dose curve; as a rule, active = well fitted inhibition curve with a large enough effect; inconclusive = small, poorly fitted or top-dose-only effect, or another doubt; inactive = no such curve, though single readings can be large or run the other way. Where the call is inconclusive, the potency comes from a doubtful curve fit.
# Target: Lysosomal alpha-glucosidase (Homo sapiens) (UniProt P10253)
# Experiment: qHTS Assay for Inhibitors and Activators of Human alpha-Glucosidase Cleavage of Glycogen;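 as to activity change, negative = inhibition: 0% = full enzyme reaction and -100% = no-enzyme basal signal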
# Details: recombinant GAA, glycogen substrate, Amplex Red glucose oxidase fluorescence; activity change, negative = inhibition: at 76.4 µM (top of the series) unless noted
# In short: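 Recombinant enzyme (4 nM final) with compounds titrated up to 77 uM and bovine liver glycogen (30 ug) in citrate pH 5.0, 0.01% Tween-20, 37 C 40 min. Released glucose detected by Amplex Red/glucose oxidase (Ex 573/Em 610); AC50 from Hill fits.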
# Potency is read from the fitted curve at half-maximal effect.
Structure (SMILES),Potency,"activity change, negative = inhibition"
CCc1ccc2oc(-c3cc(N)ccc3O)nc2c1,"inconclusive: 25.1 µM [inhibitor, single point]",
Cc1ccc(NC(=S)NC(=O)c2sc3ccccc3c2Cl)c(C(=O)O)c1,"inconclusive: 28.2 µM [inhibitor, single point]",
Nc1nnc(SCC(=O)c2cccc([N+](=O)[O-])c2)s1,"inconclusive: 35.5 µM [inhibitor, single point]",
CCOc1ccc(Nc2nc(Cc3nnc(SCC(=O)NC4CCCCC4)n3C)cs2)cc1,"inconclusive: 15.8 µM [inhibitor, partial curve]",
CN(C)c1cc(O)c(C(=S)Nc2ccccc2)c(N(C)C)c1,"inconclusive: 8.91 µM [inhibitor, full curve]",
COc1ccc(NC2C=CS(=O)(=O)C2)c(OC)c1 (stereo unspecified),"inconclusive: 35.5 µM [inhibitor, partial curve]",
NNC(=O)c1c(O)c2cccc3c2n(c1=O)CCC3,"inconclusive: 12.6 µM [inhibitor, partial curve]",
CCOC(=O)/C(=N\Nc1ccccc1Cl)N1CCN(Cc2ccccc2)CC1,"inconclusive: 20 µM [inhibitor, partial curve]",
CCOC(=O)/C(=N\Nc1ccc(OC)cc1)c1csc(Nc2ccccc2)n1,active: 25.1 µM,
CC(=O)Nc1ccc(-c2csc(NC(=O)C3CC(=O)N(c4ccc5c(c4)OCCO5)C3)n2)cc1 (stereo unspecified),inactive,
O=C(COc1ccccc1)NN1C(=O)CSC1=S,"inconclusive: 39.8 µM [inhibitor, single point]",
CSC1=C(C#N)C(c2ccc(Cl)cc2)C2=C(CC(C)(C)CC2=O)N1 (stereo unspecified),"inconclusive: 44.7 µM [inhibitor, single point]",
COc1ccc(C(=O)NNC(=S)NC(=O)C(C)(C)C)cc1,active: 7.94 µM,
C(=N\N1CCN(c2ccccn2)CC1)/c1ccco1,"inconclusive: 31.6 µM [inhibitor, partial curve]",
CCCc1cc(=O)[nH]c(Nc2ccc(O)cc2)n1,active: 28 µM,
Cc1nc2ccc(NC(=S)NCCCO)cc2nc1C,inactive,
CC(=O)NNc1nc2ccccc2s1,active: 8.91 µM,
O=C(CCC(=O)N/N=C/c1ccc(Br)s1)NCc1ccccc1,inactive,
COC(=O)c1c(NS(=O)(=O)c2ccc(C)cc2)sc2c1CCC(C)C2 (stereo unspecified),"inconclusive: 50.1 µM [inhibitor, single point]",
COc1ccc(S(N)(=O)=O)cc1C(=O)OCCCOC(=O)c1cc(S(N)(=O)=O)ccc1OC,"inconclusive: 28.2 µM [inhibitor, single point]",
O=c1[nH][nH]cc1C=Nc1ccccc1O,"inconclusive: 35.5 µM [inhibitor, partial curve]",
O=C(Nc1cc(Cl)ccc1O)C1CC(c2ccccc2Cl)=NO1 (stereo unspecified),"inconclusive: 31.6 µM [inhibitor, single point]",
Cc1nn(-c2ccccc2)c2[nH]c(=O)c(CNCc3ccc4c(c3)OCO4)cc12,,inconclusive: 39.5% [activator]

Structure (SMILES),Potency,"activity change, negative = inhibition"
Cc1sc2ncnc(Nc3ccc(O)cc3)c2c1C,"inconclusive: 50.1 µM [inhibitor, single point]",
Cc1ccc2[nH]c(=O)c(CNC(C)(C)C)cc2c1,"inconclusive: 17.6 µM [activator, partial curve]",
CCOC(=O)c1ccc(NC(=O)c2ccc3c(c2)NC(=O)c2ccccc2S3)cc1,inactive,
Cc1nnc(N/N=C/c2c(O)n(-c3cccc(C(F)(F)F)c3)c(=O)c3ccccc23)[nH]c1=O,active: 25.1 µM,
COc1ccc(-c2nc3ncccn3c2Nc2ccc3c(c2)OCCO3)cc1,"inconclusive: 19.8 µM [inhibitor, single point]",
Cc1ccc(C(=O)NNc2cc(N3CCCC3)nc(N3CCCC3)n2)cc1,active: 28.2 µM,
CC(C)c1nc2n[nH]c(N)c2c2c1CCCC2,"inconclusive: 31.6 µM [inhibitor, partial curve]",
COc1ccc(/C=N\NC(=O)c2cc(O)c(O)c(O)c2)cc1CN1CCN(c2ccc(F)cc2)CC1,"inconclusive: 11.2 µM [inhibitor, partial curve]",
O=C(NCC(=O)N1CCN(c2ccccc2O)CC1)c1ccc2ccccc2c1,"inconclusive: 8.91 µM [inhibitor, single point]",
COC(=O)C(NC(C)=O)(Nc1sc2c(c1C(N)=O)CCCC2)C(F)(F)F (stereo unspecified),active: 20 µM,
Cc1ccc2c(=O)cc(C(=O)Nc3ccc(S(=O)(=O)N4CCCCCC4)cc3)oc2c1C,inactive,
COc1ccccc1NCC(=O)n1nc(C)cc1C,"inconclusive: 35.2 µM [activator, partial curve]",
NC(=S)NNc1cccc(Cl)c1,"inconclusive: 14.1 µM [inhibitor, partial curve]",
CCOC(=O)c1c(C)n(CCNC(C)=O)c2ccc(O)cc12,"inconclusive: 15.8 µM [inhibitor, partial curve]",
O=C(O)/C=C/C(=O)N1CCN(c2ccc(F)cc2)CC1,"inconclusive: 31.6 µM [inhibitor, single point]",
Oc1ccc(-c2[nH]ncc2-c2cccc3cccnc23)c(O)c1,"inconclusive: 17.8 µM [inhibitor, partial curve]",
COc1ccc(C2CC(=O)Nc3c2c(=O)[nH]c2nc4ccccc4n32)cc1OC (stereo unspecified),inactive,
CNC(=S)N1N=C(c2ccc(C)cc2)CC1c1ccc(N(C)C)cc1 (stereo unspecified),"inconclusive: 39.5 µM [activator, single point]",
O=C(c1ccc(=O)[nH]n1)N1CCc2ccccc2C1,"inconclusive: 7.94 µM [inhibitor, single point]",
COc1ccc(OC(=O)COc2cccc(C)c2)cc1,"inconclusive: 31.6 µM [inhibitor, single point]",
Cc1ccc(O)c(NC(=O)c2cccc(S(=O)(=O)N3CCCCC3)c2)c1,"inconclusive: 25.1 µM [inhibitor, partial curve]",
COc1ccc(C(=O)NCCN2C(=O)S/C(=C\c3cccnc3)C2=O)cc1[N+](=O)[O-],inactive,
CCOC(=O)c1c(-c2ccco2)csc1NC(=O)CSc1nnc(N)s1,inactive,
